The values that follow come from paper PMC10726135.

This is one part of the list. At the low end of the ranking the order means little. Measured with an extract: partners may take part in the binding.

In the experiment the target is T1, HNF4alpha8 (COS-7 nuclear extract) (UniProt P41235-5).
T1 sequence: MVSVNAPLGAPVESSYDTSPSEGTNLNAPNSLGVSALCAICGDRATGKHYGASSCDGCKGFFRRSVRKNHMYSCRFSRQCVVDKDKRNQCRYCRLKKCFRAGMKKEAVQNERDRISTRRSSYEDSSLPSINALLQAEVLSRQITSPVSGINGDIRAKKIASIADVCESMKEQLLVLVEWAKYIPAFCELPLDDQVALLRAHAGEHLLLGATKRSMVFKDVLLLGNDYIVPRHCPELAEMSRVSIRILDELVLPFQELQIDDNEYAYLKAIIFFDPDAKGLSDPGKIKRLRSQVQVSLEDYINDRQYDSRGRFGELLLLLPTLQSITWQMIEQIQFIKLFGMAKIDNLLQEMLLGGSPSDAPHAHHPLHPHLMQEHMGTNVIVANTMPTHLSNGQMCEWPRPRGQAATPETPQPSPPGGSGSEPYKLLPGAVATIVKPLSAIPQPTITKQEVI
Description: protein-binding microarray. Conditions: COS-7 nuclear extract on double-stranded Agilent 4x180k PBM; binding buffer, salt, pH and temperature not given; high values mean tight binding; double strand, one strand shown; sequences stand for … in …GCCTAGGGAGATTAGAGTATCGGTCGA
With AGCCTGTGGTTTCTCTTTGTATACACATTA, the binding signal (log2 normalized intensity) came to 1.05.
The value for AGTAGAGAGCAATCATGGGCCCACAGATGA was -1.1.
The value for CTTTCTTCTTGATCAAGAGGAAGATCTTTT was 1.08; that for CACCTTGGGGGCTGCTGGGGGCACAGTCCA was 3.57.
The value for GGTGTTAAAATAACGACCTTTGGGCTAAAA was 4.52; that for ACAGTTAGGTAAGAGACAAAGGTTGCATTC was 2.01.
With TCCTTTTGCTTAAAACGCCTGCAGAAACTT, the binding signal (log2 normalized intensity) was -1.21.
GGATGAGGCCGTTCTAGCCCTTTTTCCGGC: the binding signal (log2 normalized intensity) was -1.19.
The value for TCAAAGCCAGCAACGGTGAGTCAAGCACTT was -1.33.
The value for GACAGCGGGTGTTTCTGGGAGTTGTGGTCC was 1.67; that for GAACATAAGGATGCGGACTCCTCCCTCAGC was -1.22.
Then CTGCTGGGCGTGAACTGTGACTTTTATCTT, with 1.17; and AGCCAGGTTAATTCACATCTCCAGTTCCAA, with -0.845; and CACCCAGAGCGTCCCACCTGAGGCCAAGCA, with -1.39.
In the case of TTGCTGGTCCCTTTCAAAACCTTTGGTTTT, the binding signal (log2 normalized intensity) was found to be 1.28.
The value for GGCCCTGTGCTGCCCCCGATAGCACTATTA was 3.71.
Then TAACTAACAAAAGCAGAGGAGTGGCCATGA, with -1.32.
Then GCATGCACTGTTTGCCATAGATCCCACCAT, with 0.809.
With GACTCCAGCTAAAGCCTGCTCGTTGGGGGT, the binding signal (log2 normalized intensity) was -1.37.
Take TCATTCAAAGTCCAAAAAGAATCAGTTACA: the binding signal (log2 normalized intensity) is 1.48.
Then GCAGAGTTTTTTACTGCTCCTGCTGGCTAG, with -1.31; and GCCAGATATGCCGAGAATGCAGCCTTATCT, with -1.32; and GCCTGTCAGGCCCAGAAACACTGAACCTTG, with 2.38.
Then ATCACACAGGCATATTTGGTTAGCTGTGCA, with 0.44; and TTACCTGGGAAATTCCCTTTGCCTCATCTG, with -1.12; and CACAGACCTGCCTCTCTCTCATGTCTGTAC, with 0.832.
The value for AGGTCAGGTGAATCAACGATAAGGGATGAT was -1.3; that for TCCTTCTCACCGGGTGGAGCCTCACTGCAG was -0.4; that for AGTCCAAGAGATTTCTACAGATAGCAAGAT was -1.3.
For CATCATAAACCCGATCCTTACTATTAGGTC, the binding signal (log2 normalized intensity) came to 1.
Then GATAATCTCAAAAGGGAATTTTGGACAAGG, with -0.992; and GACCTGGAGCCAGGGCCTTTTCAAGGGAGT, with -1.3; and CTTCAAGTGTGACCCTGAACCTACAGCCCC, with 3.08.
The value for CAAGCCCAAAGCCCCCAGAGGTTCTAGCCC was 3.15; that for ACCATCTCCAACATGACCACCTGGTTTAAG was 0.217; that for GATAAGCCAAGAATGTACTCTCCCCACCTG was 2.95.
Then GGAAGGAGTCATTATCTTTATTATCCCAGT, with 1.97; and GACCTTCAGATGCAGTCCAGAAGGTCAGGA, with 4.19; and CGGAAGTTGCAGTGAGCTAAGATTGGACTC, with 5.36.
For TGGGACTCATTTATGGAGGAATTTGGACTT, the binding signal (log2 normalized intensity) stood at 5.36.
